Our source for the inhibition values is PubChem BioAssay AID485344 (National Center for Advancing Translational Sciences (NCATS), 2010).

A word on the inhibition: it is the relative decrease from the control value, in per cent.

About 6,900 (2%) of roughly 340,000 compounds were called active. Rule as the data show it: active = inhibition above about 30%; inactive = below that, where a call was filed. This is a selection; strong and weak results do not stand in their true shares. The source gives no active or inactive call for entries shown without one.

This assay deals with D(2) dopamine receptor (Homo sapiens) (UniProt P14416). Kind of assay: HTS Assay for Allosteric Antagonists of the Human D2 Dopamine Receptor: Primary Screen for Antagonists. Also: 0% is about no effect. Particulars: HEK293 TREx D2 cells, calcium flux, dopamine EC80; at 10 µM; stronger effect = higher value. In outline: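 Dopamine at EC80 is the agonist stimulus; test compounds precede it by 180 s. Calcium flux read kinetically in a force-coupled, inducible HEK293 T-REx D2 cell line.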
Sequence of UniProt P14416 (P14416 whole entry, looked up): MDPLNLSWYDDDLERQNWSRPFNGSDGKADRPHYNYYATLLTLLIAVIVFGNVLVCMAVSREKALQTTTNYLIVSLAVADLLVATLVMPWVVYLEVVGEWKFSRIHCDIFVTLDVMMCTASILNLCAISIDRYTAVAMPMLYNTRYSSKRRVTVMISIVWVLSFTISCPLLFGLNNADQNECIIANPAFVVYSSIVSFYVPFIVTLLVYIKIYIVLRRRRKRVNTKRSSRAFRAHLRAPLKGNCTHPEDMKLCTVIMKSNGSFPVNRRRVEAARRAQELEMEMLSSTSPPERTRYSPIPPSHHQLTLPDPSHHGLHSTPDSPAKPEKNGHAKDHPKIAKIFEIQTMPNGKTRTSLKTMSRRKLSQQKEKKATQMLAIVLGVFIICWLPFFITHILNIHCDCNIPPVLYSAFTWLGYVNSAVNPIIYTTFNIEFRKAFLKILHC
(In general: A change in cytosolic calcium serves as a functional read-out for many receptors and channels.)
Turning to `O=C(CSc1nc2ccccc2nc1Cc1ccc(F)cc1)Nc1ccc2c(c1)OCO2`, the inhibition is -1.74%. Regarding `COCCNC(=O)Cn1c(=O)n(Cc2ccc(C(=O)NCCc3ccc(OC)c(OC)c3)cc2)c(=O)c2ccccc21`, the inhibition amounted to 5.29%. For `COc1cc(Cl)c(C)cc1NC(=O)CCCN1C(=O)C(c2ccccc2)Oc2cccnc21` (configuration not stated) the value was 8.08%; for `Cc1cccc(NC(=O)CCS(=O)(=O)c2ccc3c(c2)NC(=O)CS3)n1`, active: 38.8%; for `COc1ccc(CCNC(=O)c2ccc3c(c2)CCN3S(=O)(=O)c2ccc(Cl)cc2)cc1`, 16.2%. For `O=C(Nc1nnc(S(=O)(=O)N2CCCCCC2)s1)c1ccc(Br)cc1` the value was 11%. Turning to `CCN1CCc2nc(N)sc2C1`, the inhibition is active: 34.7%. `CC(=O)c1ccc(NC2=NS(=O)(=O)c3ccccc32)cc1`: the inhibition was 3.03%. As to `COc1ccc2c(C)cc(SCc3c(C)noc3C)nc2c1`, the inhibition is active: 30.6%. With `COc1c(Cl)cc(C(=O)Nc2cccc(-c3nc4ccccc4[nH]3)c2)cc1Cl`, the inhibition came out at 2.27%. The same measure for `COc1ccc(Cl)cc1NC(=O)Cn1nnc2sc3c(c2c1=O)CCC(C(C)(C)C)C3` (configuration not stated): 18.3%.

On to `CCc1cccc(C)c1NS(=O)(=O)c1c(C(=O)N2CCCCCC2)c(C)n(C)c1C`, for which the inhibition is 9.04%. For `Cc1ccc(Cl)cc1N1CCN(C(=O)CN2C(=O)COc3ccc(S(=O)(=O)N4CCOCC4)cc32)CC1` the value was -2.73%. Regarding `Cc1cc(C)c(Cn2c3ccccc3c3cnn(CC(=O)NCCc4ccccc4)c(=O)c32)c(C)c1`, the inhibition is -10.4%. For `O=C(NCc1ccc(F)cc1)c1ccc(CSc2nc3ccncc3n2Cc2ccc(F)cc2)cc1` the value was 18.2%; for `CCOC(=O)c1c(Nc2cccc(O)c2)nnc(-c2ccccc2)c1-c1ccccc1`, -21.2%; for `COc1ccc(C(=O)N(Cc2sccc2C)C2CCS(=O)(=O)C2)cc1Cl` (configuration not stated), 6.51%. The same measure for `Cc1cc(=O)n2c(C(=O)Nc3ccc(C)c(Cl)c3)c(C(=O)Nc3ccccc3)sc2n1`: -9.02%; for `CCN1CCN(C(=O)c2ccc3c(c2)N(Cc2ccc(Cl)cc2)C(=O)c2ccccc2S3(=O)=O)CC1`: 8.9%; for `Cc1cc(C)c(S(=O)(=O)Nc2cc(-c3cn4ccccc4n3)ccc2C)cc1C`: -11.8%.

Regarding `O=C(NCc1ccc2c(c1)OCO2)c1ccc2c(c1)N(Cc1cccc(Cl)c1)C(=O)c1ccccc1S2`, the inhibition turned out to be 21.1%. Consider `Cc1ccc(C(=O)c2sc(Nc3ccccc3F)c(S(=O)(=O)c3ccccc3)c2N)c(C)c1`, for which the inhibition is -11.5%. For `O=C(Cn1ncc2c([nH]c3ccccc32)c1=O)Nc1cc(F)ccc1F` the value was -13.7%; for `Cc1cccc(N2CCN(C(=O)C3CCN(S(=O)(=O)c4c(C)noc4/C=C/c4ccccc4F)CC3)CC2)c1C`, 6%; for `CCC1CN(S(=O)(=O)c2cc(-c3cc(C)no3)ccc2OC)c2cc(C)ccc2O1` (configuration not stated), -1.16%. As for `COc1ccc(OC)c(CNC(=O)C2CCN(S(=O)(=O)c3cn(C)cn3)CC2)c1`, the inhibition was 7.48%. For `COc1cc(Cl)c(C)cc1NC(=O)c1cc(CN2CCOCC2)on1` the value was 0.249%; for `CCc1ccc(NC(=O)CCS(=O)(=O)c2ccc3c(c2)CCN3C(C)=O)cc1`, 12.3%; for `CCc1ccccc1NC(=O)Nc1cc(C(=O)NCc2ccc(C(C)C)cc2)ccc1N1CCCC1`, 13.8%. Take `Cc1cc(NC(=O)c2ccc3c(c2)N(Cc2cccc(Cl)c2)C(=O)c2ccccc2S3=O)ccc1Br` (configuration not stated): the inhibition was -2.2%. On to `Cc1ccc(S(=O)(=O)c2cn(Cc3ccccc3F)c3cc4c(cc3c2=O)OCO4)cc1`, for which the inhibition was -16.6%. As for `Clc1ncc(CN2CCN(c3ccccc3)CC2)s1`, the inhibition was active: 83.7%. Take `CC1CCCN(Cc2c(O)ccc3c(=O)c(Oc4ccccc4Cl)c(C(F)(F)F)oc23)C1` (configuration not stated): the inhibition was -7.54%. As to `O=C(NCCCN1CCN(c2ccccc2F)CC1)C1CCN(S(=O)(=O)c2cccs2)CC1`, the inhibition was active: 74.7%.

On to `COc1cccc(N2CCN(C(=O)c3cccc(NC(=O)c4nsc5ccccc45)c3)CC2)c1`, for which the inhibition was 12.2%. `COc1cc(CN(C(=O)c2ccccc2[N+](=O)[O-])c2ccccn2)cc(OC)c1OC`: the inhibition is 2.85%. The same measure for `Cc1ccc(C)c(NC(=O)CSc2nc(=O)n(CCN(C)C)c3c2CCC3)c1`: -17.2%; for `Cc1sc2c(c1C)c(=O)n(CCc1ccccc1)c(=O)n2Cc1ccccc1Cl`: 1.4%; for `N#Cc1ccccc1NC(=O)c1cc2c(=O)n3ccccc3nc2s1`: -3.56%.

Take `CC1CCN(S(=O)(=O)c2ccc3c(c2)N(CC(=O)NCCCN2CCCCC2C)C(=O)CS3)CC1` (configuration not stated): the inhibition is -21.8%.

Consider `COc1ccc(CCNC(=O)C2=C(C)C(=O)OC23CCCCC3)c(OC)c1OC`, for which the inhibition was -1.49%. The same measure for `CCN(CC)S(=O)(=O)c1ccc2c(c1)nc(CN(C)C(=O)c1cccc(Cl)c1)n2C`: -6.1%. Consider `OC(COc1ccccc1)CN1CCN(c2ncccn2)CC1` (configuration not stated), for which the inhibition was active: 38.7%.

With `CCOc1ccc(C(=O)Nc2nnc(SCc3cc(=O)c4cc(C)ccc4[nH]3)s2)cc1`, the inhibition amounted to 2.4%. On to `COc1cccc2sc(N(Cc3cccnc3)C(=O)COc3ccccc3)nc12`, for which the inhibition was determined as 4.62%. Regarding `CC1(C(=O)NC(=S)NNC(=O)c2ccncc2)CCCCC1`, the inhibition was active: 34.1%. Regarding `Cc1nn(-c2ccccc2)c(OC(=O)c2ccccc2F)c1S(=O)(=O)c1ccccc1`, the inhibition was -1.17%. For `COCCCNC(=O)CCn1c(=O)c2ccccc2n(CC(=O)Nc2c(C)cc(C)cc2C)c1=O`, the inhibition is -9.66%. For `Cc1ccc(-n2c(=O)c3cccnc3n2CC(=O)Nc2cccc(C)c2C)cc1` the value was 5.87%; for `CC(C)c1ccc(OC(=O)c2cc(-c3ccc4c(c3)OCCO4)on2)cc1`, 14.8%. Take `COc1ccc(CCNC(=O)CSc2ncc3c(n2)-c2cc(Cl)ccc2N(Cc2ccccc2)S3(=O)=O)cc1OC`: the inhibition is -11.2%. The same measure for `Cc1ccc(CNC(=O)c2nc(SCc3ccc(C)cc3)ncc2Cl)cc1`: -13.2%; for `Cc1ccc(C)c(N2CCN(CC3CCCCC3)CC2)c1`: active: 62.2%; for `CC(C)c1ccc(NC(=O)CSC2=Nc3ccccc3C3=NC(CC(=O)NCc4ccc(F)cc4)C(=O)N23)cc1` (configuration not stated): 19.6%. Consider `CCc1ccccc1NC(=O)Cn1c(=O)c2cccn2c2ccc(F)cc21`, for which the inhibition was 0.457%.

As for `COc1ccc(CNC(=O)c2ccc3c(c2)N(Cc2cccc(Cl)c2)C(=O)c2ccccc2S3)c(OC)c1`, the inhibition was determined as 4.43%. For `CCCCn1c2ccc(F)cc2c2nnc(SCCN3CCCCC3)nc21` the value was 0.0171%; for `Cc1ccc(OCC(=O)NCC(=O)OCc2cc(=O)n3nc(C)sc3n2)cc1`, 4.71%. For `CCOC(=O)C1CCN(S(=O)(=O)c2cc(-c3onc(C)c3C)ccc2OC)CC1` the value was -5.48%; for `Cc1ccc(Cl)cc1N1CCN(C(=O)C2CCCN(S(=O)(=O)c3ccc(Br)s3)C2)CC1` (configuration not stated), -12.2%; for `COc1ccccc1NC(=O)CCn1cnc2ccccc2c1=O`, 15.6%.

For `Cc1ccc2nc(-c3ccc(Cl)c(NC(=O)c4cccnc4)c3)oc2c1`, the inhibition is -1.05%. `CC(=O)N1CCCc2cc(S(=O)(=O)N3CCCCC3)ccc21`: the inhibition is -12.9%. Take `CCOc1ccccc1CNC(=O)c1cc2c(=O)n(Cc3ccccc3)ccc2nc1C`: the inhibition was -6.21%.

In the case of `CCOc1ccc(NC(=O)CSc2nccn2-c2cccc(C)c2C)cc1`, the inhibition was 1.87%. Turning to `CN(C(=O)c1cc2c(=O)oc3ccccc3c2s1)c1ccc(F)cc1`, the inhibition is 12%.

Regarding `c1ccc(Cc2nnc(SCc3nc(-c4cccs4)no3)n2-c2ccccc2)cc1`, the inhibition was -13.6%.

With `Cc1c(C)c2cc(Cl)c(O)c(CN(C)C)c2oc1=O`, the inhibition was active: 35.2%. For `COc1ccc(C(=O)Nc2cc(C(C)C)c(O)c(S(=O)(=O)c3ccc(OC)cc3)c2C)cc1` the value was -4.93%. In the case of `COc1ccc(S(=O)(=O)c2c(Nc3ccc(F)cc3)sc(C(=O)c3ccc(C)cc3C)c2N)cc1`, the inhibition is -15.5%. For `O=c1c2oc3ccccc3c2n(Cc2cccc(F)c2)c(=O)n1Cc1ccco1`, the inhibition was determined as 0.226%. The same measure for `COc1cccc(NC(=O)c2sc3nc(C)c(C(=O)Nc4ccc(C)cc4C)c(-c4sccc4C)c3c2N)c1`: 0.507%; for `COc1ccccc1CNC(=O)C1CCN(S(=O)(=O)c2ccc(N3CCCC3=O)cc2)CC1`: active: 36.8%; for `CC(C)c1ccc2oc(-c3cc(NC(=O)c4cccs4)ccc3Cl)nc2c1`: -0.392%. The same measure for `CCOc1ccccc1CNC(=O)C1CCN(C2=NS(=O)(=O)C(c3ccc(C)c(C)c3)=C2C)CC1`: 12.5%; for `COc1ccc(OC)c(NC(=O)Cn2cnc3sc(C)c(S(=O)(=O)N4CCN(c5ccccc5OC)CC4)c3c2=O)c1`: 3.77%; for `COc1ccc(NC(=O)c2ccc3c(=O)n4nc(Nc5cc(C)ccc5C)sc4nc3c2)cc1`: 11.3%. The same measure for `CCCN(C(=O)c1nn(-c2ccc(OC)c(Cl)c2)c(=O)c2c1c1ccccc1n2C)c1ccccc1F`: 2.06%; for `CCOC(=O)C1CCCN(C(=O)c2ccccc2SCCOC)C1` (configuration not stated): active: 30.3%; for `CCOc1ccc(C(=O)NCCc2csc(-c3ccc(C(F)(F)F)cc3)n2)cc1OCC`: 8.54%. Turning to `COc1ccc(C(=O)N2CCC(c3nc4ccccc4o3)CC2)cc1`, the inhibition amounted to 2.2%. For `Cc1ccc([C@H]2Nc3ccc(S(=O)(=O)Nc4cccc(Cl)c4C)cc3[C@H]3C=CC[C@H]32)cc1`, the inhibition was -9.19%. `CCC1CCCCN1CC(=O)c1c(C)[nH]c2cc(C)ccc12` (configuration not stated): the inhibition was active: 32.9%.

For the molecule `CCn1cc(CCC(=O)NCc2ccc(F)cc2)c2ccccc21`, the inhibition is -19.7%.

For `Cc1ccc(Nc2nnc(-c3ccc(C)c(S(=O)(=O)N4CCN(C)CC4)c3)c3ccccc23)c(C)c1`, the inhibition is -16.6%. The same measure for `Cn1c(C(=O)NCCCN2CCN(c3ccccc3F)CC2)cc2c(=O)n(C)c3ccccc3c21`: active: 97.8%; for `O=C(NCCc1cnc[nH]1)Nc1cccc(C(F)(F)F)c1`: active: 40.2%. The same measure for `CC1=C(C(=O)Nc2cccnc2)C(c2cccc(O)c2)n2nc(SCc3ccccc3)nc2N1` (configuration not stated): 8.56%; for `Cc1cc(C)c(Cn2c(CCNC(=O)c3ccco3)nc3ccccc32)c(C)c1`: -11.2%; for `CCCn1c(=O)n(-c2cc(Cl)c(OC)cc2OC)c(=O)c2c3c(sc21)CN(C(C)=O)CC3`: 22.2%. The same measure for `COc1ccc(NC(=O)Cn2cc(S(=O)(=O)c3ccc(C)cc3)c(=O)c3ccccc32)cc1OC`: -28%; for `CCOc1ccccc1Nc1nc(-c2cccc(Cl)c2)c2c(n1)-c1ccccc1OC2`: 3.61%.
